Sequences and labels used below:
B1: tRNA (parent)
chain: CUCUCGGUAGCCAAGUUGGUUUAAGGCGCAAGACUUUAAUUUAUCACUACGAAAUCUUGAGAUCGGGCGUUCGACUCGCCCCCGGGAGAUUUUUUCCUCGAGCAA

This sample is rich in variants without activity.

The variants in the series derive from B1. Briefly: nonsense suppression (GFP-seq) (ratio to wild type); higher = more function; SUP4oc tRNA, yeast GFP reporter sort-seq. The gist of the method:
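Raffinose/galactose medium with 80 mg/L adenine was used to grow yeast carrying genome-integrated tRNA variants (~3% random-mutation library), RFP, and a galactose-driven GFP ochre reporter. Cells went into GFP/RFP bins, which were Illumina-sequenced, and variants with ≥100 reads and ≥30 cells were scored. Nonsense suppression (GFPSEQ) is the per-bin median GFP/RFP weighted by estimated cell share and expressed relative to the unmutated parent tRNA.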
Consider CUCUCGGAAGCCAAGUUGGUUUAAGGCGCAAGACUUUAAUUUAUCACUACGAAAUCUUGGGAUCGGGCGUUCGACUUGCCCCCGGGAGAUUUUUUCCUCGAGCAA [U8A A60G C77U], for which the nonsense suppression was no more than 0.026. Then CUCUCGGUAGCCAAGUUGGUUUAAGGCGCAAAACUUUAAUUUAUCACUACGAAAUCUUGACAUCGGUCGUUGGACUCGCCCCCGGGAGAUUUUUUCCUCGAGCAA [G32A G61C G67U C72G], with no more than 0.026. Then CACUUGGUAGCCAAGUUUGUUUAAGGCGCAAGACUUUAAUUUAUCACUACGAAACCUGGAGAUCGGGCGCUCGACUCGCCUCCGGGAGAUUUUUUCCUCGAGCAA [U2A C5U G18U U55C U58G U70C C81U], with no more than 0.026. Then UUCUCGUUAGCCAAAUUGGUUUAAGGCGCAAGACAUUAAUUUAUCACUACGAAAUCUUGAGGUCGGGCGUUCGACUCGCCCCCGGGAGAUUUUUUCCUCGAGCAA [C1U G7U G15A U35A A62G], with no more than 0.026; and CUCGCGGAAGCCAAGUUGGUUUAAGGCGCAAGACUUUAAUUUAUCACUACGAAAUCUUGAGAUCGGGCGUUCGAUUCGCCCCCGGGAGAUUUUUUCCUCGAGCAA [U4G U8A C75U], with no more than 0.026. Turning to CUCUCGGUAGCCAAGUUGGUUUAAGGCGAAAGGCUUUAAUUUAUCACUACGAAAUCCUGAGAUCAGGCGUUCGACUCGCCCCCGGGAGAUUUUUUCCUCGAGCAA [C29A A33G U57C G65A], the nonsense suppression is no more than 0.026. Then CUCUCGGUAGCCACGUUGGUUUAAGGCGCAAGACUUUAAUUUAUCACUACGAAAUCUUGAGAUCGGGCGUUCUACUCGCCCCCUGGAGAUUUUUUCCUCGAGCAA [A14C G73U G84U], with no more than 0.026. Take CUCUCGGUGGCCAAGUUGGUUUAAGGCGCAAGACAUUAAUUUAUCACUACGAAAUCUUGUGAUCGAGCGUUCGACUCGCCCCUGUGAGAUUUUUUCCUCGAGCAA [A9G U35A A60U G66A C83U G85U]: the nonsense suppression is no more than 0.026. Then CUGUCGGUAGCCAAGUUGGUUUAAGGCGCAAGACUUUAAUUUAUCACUACGAAAUCUUGAGAUCGGGCGUUCGACUCCCCCCCGGGAGAUUUUUUCCUCGAGCAA [C3G G78C], with no more than 0.026.

CUCUCGGUAGCCAAGUUGGUUUAAGGCGCAAGACUUUAAUUUAUCACUACGAAAUCUUGAGGUCGGGCGUUCGACUCGCGCCCGGGAGAUUUUUUCCUCGAGCAA [A62G C80G]: the nonsense suppression was no more than 0.026.

In the case of CUCUCGGUAGCCACGUUGGUUUAAGGCGCAAGACUUUAAUUUAUCACUACGAAAUGUUGAGAUCGGGCGUUGGACUCGCCCCCGGAAGAUUUUUUCCUCGAGCAA [A14C C56G C72G G86A], the nonsense suppression was no more than 0.026. Then CACUCGGUAGCCAAUUUGGUUUAAGGCGCAAGACUUUAAUUUAUCACUACGAAAUCUUGAGAUGGGGCGUUCGACUCGCACCCGGGAGAUUUUUUCCUCGAGCAA [U2A G15U C64G C80A], with no more than 0.026. Then CUCGCGGUAGCCAAGUUGGCUUAAGGCGCAAGACUUUAAUUUAUCACUACGAAAUCUUGAGAUCGGGCGUUCGAAUCGCCCCCUGGAGAUUUUUUCCUCGAGCAA [U4G U20C C75A G84U], with no more than 0.026; and CUCUCGGUAGCCAAGUUGGUUUACGGCGCAAGACUUUAAUUUAUCACUACGAAAUCUUGUGAUCGGGCGUUCGACUCGCCCCCGGGAGAUUUUUUCCUCGAGCAA [A24C A60U], with 1.07.

Regarding CUCUCGGUAGUCAAGUUGGUUUAAGGCGCAAGACUUUAAUUUAUCACUACGAAAUCUUGAGAUCGGGCGUUCAACUCGCCCCCGGGAUAUUUUUUCCUCGAGCAA [C11U G73A G88U], the nonsense suppression is no more than 0.026. Then CUCUCGGUAGCCAAGUUGGUCUAAGGCGCAAGACUUUAAUUUAUCACUACGAAAUCUUGAGAUCGGGCGUUCGACUCGCCUCCGGGAGAUUUUUUCCUCGAGCAA [U21C C81U], with 1.14; and CUCCCGGUAGCCACGUUGGUUUAAGGCGCAAGACUUUAAUUUAUCACUACGAAAUCAUGAGUUAGGGUGUUCGACUCGCCCCCGGGAGAUUUUUUCCUCGAGCAA [U4C A14C U57A A62U C64A C68U], with no more than 0.026.

In the case of CUCUCGGUAGCCAAGUUGGUUUGAGGCGCAUGACUUUAAUUUAUCACUACGAAAUCUUGAGAUCGGGCGUUCGACUCGCCCCCGGGAGAUUUUUUCCUCGAGCAA [A23G A31U], the nonsense suppression is no more than 0.026.

As to CUCUCGGUAGCCAAGUUAGUUUAAGGCGCACGAAUUUAAUUUAUCACUACGAAAUCUUGAGAUCGGGCGUUCGACUCGCCCCCGGGAGAUUUUUUCCUCGAGCAA [G18A A31C C34A], the nonsense suppression was no more than 0.026.

Consider CUCUCGGUAGCCAAGCUUGUUUAUGGCGCAAGACUUUAAUUUAUCACUACGAAAUCUUGAGAUCGGGCGUUCGACUCGGCCCCGGGAGAUUUUUUCCUCGAGCAA [U16C G18U A24U C79G], for which the nonsense suppression is no more than 0.026. Then CUCUCGGUAGCCAAGUUGGCUUAAGGCGCAAGACUUUAAUUUAUCACUACGAAAUCUAGAGAUCGGGCGUACGACUCGCCCCCGGGAGAUUUUUUCCUCGAGCAA [U20C U58A U71A], with no more than 0.026; and CUCUCGGUAGCCAAGUUGGUUUAAGGCGCAAGACUUUAAUUUAUCACUACGAAAUCUUGAGAUCGGGCGUUUGACUCGCACCCGGGCGAUUUUUUCCUCGAGCAA [C72U C80A A87C], with 0.714; and CUAUCGGUAUCCAAGUUGGUAUAAGGCGCAAGACUUUAAUUUAUCACUACGAAAUCUUGAGAUCGGGCGUUCGACUCGUCCCCGGGAGAUUUUUUCCUCGAGCAA [C3A G10U U21A C79U], with no more than 0.026. Take CUCUCGGUAGCCAAGUUGGUUUAUGGCGCAAGACUUUAAUUUAUCACUACGAAAUCUUGAGAUCGGGCGUUCGACUCGCCCCCGCGAAAUUUUUUCCUCGAGCAA [A24U G85C G88A]: the nonsense suppression was no more than 0.026. Then GUCUCGGUAGCCAAGUUCGUUUAAGGCGCAAGACUUUAAUUUAUCACUACGAAAUCUUGAGAUCGGGCGUUCGUCUCGCCCCCGGGAGAUUUUUUCCUCGAGCAA [C1G G18C A74U], with no more than 0.026; and CUCUCGGUAGCCUAGUUGGUUUAAGGCGCAACACUUUAAUUUAUCACUACGAAAUCUUGAGAUCCGGCGUUCGACUCGCCCCCGGGUGAUUUUUUCCUCGAGCAA [A13U G32C G65C A87U], with no more than 0.026; and CUCUCAGUAGCCAAGUUGGUUUAAGGCGCAAGACUUUAAUUUAUCACUACGAAAUCUUGAGAUCGCGCGUUCGAGUCGCCCCCGGGAGAUUUUUUCCUCGAGCAA [G6A G66C C75G], with no more than 0.026.

Source of the values: the RNAGym collection of RNA variant scans (doi:10.1101/gad.245936.114).
